The supplement of paper PMC10441789
The list shows a part of the results. Antibody binding of pooled human sera (four to six donors per pool; dilution not stated) to peptides of the Trypanosoma cruzi antigen TSSA on microarrays. Quantile-normalised fluorescence in arbitrary units, mean of duplicate arrays; higher = more binding. No active / inactive call. The uninfected pools are read here as the healthy donors of the same country. The strongest signals lie near the top of the scale (about 60,000).

Assays:
Experiment in all cases: antibody binding signal (normalised fluorescence) (arbitrary fluorescence units); higher = stronger serum antibody binding to peptide
[1] = test system: pooled sera of chronic Chagas disease patients, Argentina
Procedure: (§1)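 Microarray of 15-residue peptides over residues 30-55 of Trypanosoma cruzi TSSAII, each with 1 to 10 substitutions at naturally variable positions, probed with one serum pool per country.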

[2] = test system: pooled sera of chronic Chagas disease patients, Bolivia
Procedure: as §1

[3] = test system: pooled sera of chronic Chagas disease patients, Brazil
Procedure: as §1

[4] = test system: pooled sera of chronic Chagas disease patients, Colombia
Procedure: as §1

[5] = test system: pooled sera of chronic Chagas disease patients, Mexico
Procedure: as §1

[6] = test system: pooled sera of chronic Chagas disease patients, USA
Procedure: as §1

[7] = test system: pooled sera of uninfected people, Argentina
Procedure: as §1

[8] = test system: pooled sera of uninfected people, Bolivia
Procedure: as §1

[9] = test system: pooled sera of uninfected people, Brazil
Procedure: as §1

[10] = test system: pooled sera of uninfected people, Mexico
Procedure: as §1

[11] = test system: pooled sera of uninfected people, USA
Procedure: as §1

Sequence | antibody binding signal [1] | antibody binding signal [2] | antibody binding signal [3] | antibody binding signal [4] | antibody binding signal [5] | antibody binding signal [6] | antibody binding signal [7] | antibody binding signal [8] | antibody binding signal [9] | antibody binding signal [10] | antibody binding signal [11]
GKENKPAAGETPSQS | 6900 | 1560 | 23200 | 12400 | 10400 | 13600 | 841 | 467 | 187 | 287 | 129
TEKKAATGETPSPSG | 2270 | 2210 | 7960 | 324 | 443 | 11600 | 608 | 240 | 264 | 392 | 2510
NKPAAGEAPSPSGAS | 372 | 4240 | 28800 | 276 | 382 | 16100 | 294 | 788 | 487 | 138 | 861
TSSTPPSGKEKKAAA | 15900 | 324 | 511 | 747 | 26600 | 568 | 652 | 407 | 141 | 96.8 | 253
TENKTAAGGTPSPPG | 29300 | 361 | 199 | 4510 | 350 | 1470 | 263 | 159 | 1050 | 1710 | 165
DNKTAAGGAPSPSGA | 335 | 417 | 506 | 6190 | 587 | 518 | 406 | 404 | 633 | 776 | 211
TENKAATGETPSPSG | 32300 | 4320 | 17000 | 290 | 145 | 13800 | 168 | 205 | 155 | 350 | 3170
KPAAGGAPSPPGASS | 167 | 198 | 336 | 1610 | 216 | 831 | 256 | 141 | 168 | 90.8 | 185
KKAATGGAPSPSGAS | 485 | 173 | 294 | 756 | 420 | 575 | 330 | 148 | 112 | 87.1 | 248
PSGKDNKAATGGAPS | 4200 | 2040 | 3650 | 10500 | 8920 | 4040 | 352 | 303 | 184 | 124 | 163
KAAAGGAPSQPGASS | 244 | 417 | 3430 | 3470 | 373 | 191 | 172 | 106 | 108 | 89.8 | 101
TPPSGKEKKPAAGET | 12500 | 465 | 856 | 632 | 41600 | 948 | 783 | 920 | 125 | 102 | 304
GTDNKPATGGAPSQP | 4910 | 16100 | 44500 | 1920 | 595 | 2670 | 325 | 1310 | 589 | 408 | 173
KENKAAAGGAPSQSG | 156 | 258 | 312 | 775 | 173 | 263 | 246 | 92.5 | 102 | 83.2 | 115
KEKKPAAGETPSQPG | 316 | 593 | 24900 | 165 | 136 | 1490 | 111 | 167 | 108 | 73.1 | 387
SGTENKTAAGGTPSP | 29400 | 6100 | 13000 | 6260 | 1020 | 4260 | 393 | 450 | 806 | 1900 | 182
KENKPATGEAPSQSG | 47600 | 32200 | 48600 | 323 | 881 | 44600 | 1110 | 796 | 275 | 274 | 170
KDNKPATGETPSQSG | 36900 | 21700 | 35800 | 251 | 307 | 27400 | 474 | 601 | 401 | 2150 | 229
GKDNKPATGGAPSQP | 1200 | 3370 | 20200 | 1060 | 1710 | 2600 | 326 | 996 | 137 | 167 | 144
KENKPATGEAPSPSG | 50400 | 45400 | 51100 | 328 | 886 | 45400 | 1000 | 837 | 305 | 272 | 221
TDNKTAAGEAPSPSG | 207 | 744 | 1880 | 146 | 211 | 7660 | 139 | 296 | 230 | 96.6 | 142
TPPSGKDNKAAAGEA | 3840 | 2300 | 2110 | 307 | 30100 | 3330 | 403 | 764 | 227 | 229 | 135
DKKAATGGTPSPPGA | 468 | 596 | 308 | 1170 | 669 | 1250 | 305 | 123 | 734 | 97.4 | 161
GTENKTATGGTPSPS | 28800 | 1490 | 1210 | 1500 | 1680 | 1300 | 271 | 481 | 329 | 456 | 166
GKDKKTAAGEAPSQS | 539 | 1580 | 460 | 1050 | 659 | 3010 | 168 | 101 | 107 | 85.2 | 92.7
PPSGTENKPATGETP | 53100 | 44000 | 48800 | 399 | 8980 | 32000 | 6990 | 1250 | 714 | 2200 | 844
